From PubChem BioAssay AID651820 (National Center for Advancing Translational Sciences (NCATS), 2012)
About 12,000 (3.5%) of roughly 340,000 compounds were called active. The shares of active, inactive and inconclusive entries below differ from those in the screen. Calls follow the shape of the dose curve; as a rule, active = well fitted inhibition curve with a large enough effect; inconclusive = small, poorly fitted or top-dose-only effect, or another doubt; inactive = no such curve, though single readings can be large or run the other way. Potencies of inconclusive entries are left out as doubtful fits.

assay: qHTS Assay for Inhibitors of Hepatitis C Virus (HCV); settings: Huh7.5.1 HCVcc-Cre (HCVcc is cell-culture hepatitis C virus) infection, luciferase reporter, 44 h; activity change, negative = inhibition: at 41.8 µM (top of the series) unless noted
Procedure, shortened: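 Compounds are dispensed onto cells plated 4 h earlier at 1,000 per well, with HCVcc-Cre virus (about 0.5 moi) added next. Following 44 h of culture, luminescent signal is measured for 15 sec after 15 min with substrate at room temperature.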
% is scaled to controls: 0 for no effect and ±100 for the full control effect; potency is read from the fitted curve at half-maximal effect; tags tell the direction and shape of the fitted curve.

Row | SMILES | Potency | activity change, negative = inhibition
1 | CC(=O)c1cccc(NC(=O)CN2C(=O)COc3ccc(Cl)cc32)c1 | inconclusive [inhibitor, single point] | –
2 | CN(C)c1nc(NCc2ccccc2)nc(SCC(=O)Nc2ccc(Cl)c(Cl)c2)n1 | inconclusive [inhibitor, single point] | –
3 | CC12CCC(=O)C=C1CCC1C2C(O)CC2(C)C(c3csc(N)n3)CCC12 (stereo not drawn) | inconclusive [inhibitor, single point] | –
4 | CCc1ccc(NC(=O)COc2ccc(Br)cn2)cc1 | inactive | –
5 | NC(=O)c1sc2nc3c(c(-c4ccco4)c2c1N)CCC3 | active: 22.4 µM | –
6 | N#C/C(=C(/O)CN1CCCC1)c1nc(-c2ccccc2)cs1 | inactive | –
7 | COc1ccc2[nH]c3c(c2c1)CCC/C3=N\N | – | inconclusive: -37.2% [inhibitor]
8 | CSc1nc2[nH]c3c(c2c2ncnn12)CCCC3 | inconclusive [inhibitor, partial curve] | –
9 | COc1ccc(NC(=O)CN(Cc2ccco2)Cc2ccco2)cc1S(=O)(=O)N1CCCCC1 | inconclusive [inhibitor, single point] | –
10 | CCn1c(=O)c([N+](=O)[O-])c(N2CCSCC2)c2ccccc21 | active: 14.1 µM | –
11 | COc1ccc(S(=O)(=O)N2CCSC2c2ccccc2)cc1 (stereo not drawn) | inconclusive [inhibitor, single point] | –
12 | CC1=C(C(=O)Nc2ccccc2)C(c2ccco2)C(C#N)=C(SCC(=O)Nc2cccc(C)c2C)N1 (stereo not drawn) | inconclusive [inhibitor, partial curve] | –
13 | COc1ccc(/C=C2\N=C(SC)N(c3ccccc3OC)C2=O)cc1 | inconclusive [inhibitor, partial curve] | –
14 | O=C1CS/C(=N/N=C2CCCC2)N1 | inactive | –
15 | COc1ccc(-n2nc(C(=O)NCC(=O)N3CCN(Cc4ccccc4)CC3)c3ccccc3c2=O)cc1 | inconclusive [inhibitor, single point] | –
16 | COc1ccc(/C=N/NC(=O)c2ccccc2F)cc1CN1CCN(c2ccc(F)cc2)CC1 | inconclusive [inhibitor, partial curve] | –
17 | CN(CCC#N)C(=O)COC(=O)c1ccccc1C(=O)c1ccc(Cl)c([N+](=O)[O-])c1 | active: 2.82 µM | –
18 | C=CCOC(=O)C1=C(C)NC(=O)NC1c1cn(-c2ccccc2)nc1-c1cccs1 (stereo not drawn) | inconclusive [inhibitor, single point] | –
19 | NC(=O)CCCn1c(C(=O)c2cc(Cl)c(N)c(Cl)c2)c2ccc(C(F)(F)F)cc2[n+]1[O-] | inactive | –
20 | Cc1ccc(Cl)cc1N1CCN(Cc2nnnn2C2CCCCC2)CC1 | inconclusive [inhibitor, single point] | –
21 | CN(C)CCCN(C(=O)c1ccc(S(=O)(=O)N2CCOCC2)cc1)c1nc2cc3c(cc2s1)OCO3 | inactive | –
22 | COc1ccc(Cc2noc(-c3ccccc3)n2)cc1OC | inconclusive [inhibitor, single point] | –

Row | SMILES | Potency | activity change, negative = inhibition
23 | O=C(CCCCCn1c(=S)[nH]c2ccc(N3CCOCC3)cc2c1=O)NCc1ccccc1Cl | inconclusive [inhibitor, single point] | –
24 | CCCN1C(=O)c2cc(C(=O)Nc3ccccc3CC)ccc2C1O (stereo not drawn) | inactive | –
25 | C[C@]12CC[C@@H]3c4ccc(O)c(O)c4CC[C@H]3[C@@H]1CC[C@@H]2O | active: 2.82 µM | –
26 | COc1ccc(-c2ccc3c(c2)S(=O)(=O)c2cccc(C(=O)N4CCN(c5c(Cl)cncc5Cl)CC4)c2C3=O)cc1OC | inconclusive [inhibitor, full curve, poor fit] | –
27 | CNC(C)C#Cc1c(-c2cc(OC)c(OC)c(OC)c2)noc1C (stereo not drawn) | inconclusive [inhibitor, partial curve] | –
28 | CCN(CC)CCNC(=O)COc1ccc(OC)cc1 | inactive | –
29 | C=CCOC(=O)C(C#N)c1nc2ccccc2nc1N1CCN(Cc2ccc3c(c2)OCO3)CC1 (stereo not drawn) | inconclusive [inhibitor, full curve] | –
30 | COc1ccc(/C=C/c2c(-c3ccc(OC)cc3)sc3ccc(N4CCOCC4)cc23)cc1 | inactive | –
31 | CC1(C)CC(=O)C(C=Nc2ccc3[nH]ncc3c2)=C(O)C1 | inactive | –
32 | COc1ccc2c(c1OC)C(=O)N1c3cccc(Cl)c3C(=O)OC21 (stereo not drawn) | inactive | –
33 | CCOC(=O)c1cnc(-c2ccccc2O)nc1Cl | inconclusive [inhibitor, single point] | –
34 | Cc1ccc(NC(=S)N/N=C/c2ccc(Cl)c([N+](=O)[O-])c2)cc1 | inconclusive [inhibitor, single point] | –
35 | CCc1ccc2c(c1)/C(=C/C(=O)c1cccs1)C(=O)N2 | active: 22.4 µM | –
36 | Cc1ccccc1CSCc1nc2ccccc2[nH]1 | inconclusive [inhibitor, single point] | –
37 | O=C(Nc1ccccc1)C1=C[C@@H](c2csc3ccccc23)C[C@@H](OCc2ccc(CO)cc2)O1 | active: 0.316 µM | –
38 | CC1=C(CCN2CCN(C(C)C)C(CCO)C2)C(C)(C)CCC1 (stereo not drawn) | inconclusive [inhibitor, single point] | –
39 | C#CCOCCOCCOCCNc1nc(N2CCN(C(=O)CCCCCCCCCCNC(=O)[C@H]([C@@H](C)CC)n3cc(CCCCN=C(N)N)nn3)CC2)nc(N2CCN(C(=O)CCCCCCCCCCNC(=O)[C@H](CCCN=C(N)N)n3cc(C[C@@H](C)CC)nn3)CC2)n1 | inconclusive [inhibitor, single point] | –
40 | O=[N+]([O-])c1ccc(-c2nc(Nc3cccc(O)c3)c3ccccc3n2)cc1 | active: 6.31 µM | –
41 | CS(=O)(=O)c1ccc(Cl)c(NC(=O)CSc2nc3ccccc3c(=O)n2Cc2ccco2)c1 | inconclusive [inhibitor, single point] | –
42 | CC1Cc2ccccc2N1S(=O)(=O)c1cccc(C(=O)N2CCCCC2)c1 (stereo not drawn) | inactive | –
43 | Cc1ccc(C2=Nc3c(ccc4ccccc34)C(c3ccncc3)=NN2)cc1 | inconclusive [inhibitor, single point] | –
